Reference: the supplement of paper PMC8674133

What was measured:
[1] = biological target: SARS-CoV-2 Wuhan-Hu-1 spike pseudovirus; assay: pseudovirus neutralization IC50; higher = weaker neutralization
Procedure: (§1)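 Single-round luciferase reporter pseudovirus mixed with antibody dilutions and put on 293T-ACE2 cells for 48 h; signal relative to no-antibody wells, four-parameter fit.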

[2] = biological target: SARS-CoV-2 Wuhan-Hu-1 spike pseudovirus; assay: pseudovirus neutralization IC90; higher = weaker neutralization
Procedure: as §1

[3] = biological target: SARS-CoV-2 Wuhan-Hu-1 spike receptor-binding domain; assay: ELISA binding EC50; higher = weaker binding; ELISA of recombinant human antibody on coated antigen, from 10 µg/ml in fourfold dilutions; four-parameter fit.

Binder	pseudovirus neutralization IC50 [1]	pseudovirus neutralization IC90 [2]	ELISA binding EC50 [3]
C1183 (protein) chain 1: EVQLVESGGGLVQPGGSLRLSCAASGIIVSRNYMSWVRQAPDKGLEWISVLYSGGSTFYADSVKGRFTISRHDSKNTLYLQMNSLRPEDTAVYYCARGEGYDIPFDPWGQGTLVTVSS chain 2: QSALTQPPSASGSPGQSVTISCTGTSSDVGGNNYVSWYQQHPGKAPKLMIYEVGKRPSGVPDRFSGSKSGNTASLTVSGLQAEDEADYYCSSYAGSNNVVFGGGTKLTVL	0.0142 µg/mL	0.0819 µg/mL	0.00249 µg/mL
C2421 (protein) chain 1: EVQLVESGGNLVQPGGSLRLSCAASGFTFASYSMNWVRQAPGKGLEWVSYISRSSSTIYYSDSVKGRFTISRDNAKNSLYLQMNSLRVEDTAVYYCAGGILGLGSLHYYYGLDVWGQGTTVTVSS chain 2: QSALTQTASVSGSPGQSITISCTGTSSDVGSYNLVSWYQQHPGKAPKLMIYDVSERPSGVSNRFSGSKSGNTASLTISGLQAEDEADYYCSSYAGSSKMIFGGGTKLTVL	> 1 µg/mL	> 1 µg/mL	0.00428 µg/mL
C1172 (protein) chain 1: EVQLVESGGGLVQPGGSLRLSCAASGFTFSRNWMSWVRQAPGKGLEWVANINQDGSAKFYLDSVKGRFTISSDHAKNTLFLQMNSLRAEDTALYYCARPRGGWYMGLDSWGQGTLVTVSS chain 2: NFMLTQPHSVSESPGKTVTISCTGSSGSIAVNYVQWYQQRPGSAPTTVIYEDNQRPSGVPDRFSGSIDSSSNSASLTISGLKTEDEADYYCQTYDGSNHWVFGGGTKLTVL	0.0663 µg/mL	> 1 µg/mL	0.00238 µg/mL
C1181 (protein) chain 1: EVQLVQSGGGLVQPGGSLRLSCAASGFTFSRDDMHWVRQRTGKGLEWVSGIGTNRDKYYEDSVKGRFTISRENGKNSLYLQMNSLRDGDTAVYYCARGVGGTVMDPYRFDYWGQGTLVTVSS chain 2: DIQMTQSPSSLSASLGDRVTITCRASQRIGNYLNWYQQRPGKAPKLLIYAASSLQSGVPSRFSGSGSGTDFTLTISSLQPDDFATYYCQQSYSSPPWTFGQGTKVEIK	0.369 µg/mL	> 1 µg/mL	0.00227 µg/mL
C1184 (protein) chain 1: EVQLVESGGGLVQPGGSLRLSCAASGFTFSSYWMSWVRQAPGKGLEWVADIKQDGSEKYYVDSVKGRFTISRDNAKNSLYLQMNSLRAEDTAVYYCARDAYYYGDYDYWGQGTLVTVSS chain 2: NFMLTQPHSVSESPGKTVTISCTGSSGSIASNYVQWYQQRPGSAPTTVIYEDNQRPSGVPDRFSGSIDSSSNSASLTISGLKTEDEADYYCQSYDSNKKVFGGGTKLTVL	0.158 µg/mL	> 1 µg/mL	0.00354 µg/mL
C1185 (protein) chain 1: QVQLQESGPGLVQPSETLSLTCIVSGGSISDYYWSWIRQPPGKGLEWIGYMYYSGSTNYNPSLKSRVTLSLNASKKQISLKLTSVTAADTAVYYCARHKWLRGELDYWGQGTLVTVSS chain 2: NFMLTQPHSVSESPGKTVTISCTGSGGSIASNYVQWYQQRPGRAPTTVIFEDNQSPSGVPDRFSGSIDSSTNSASLTISGLKTEDEADYYCQSFDHSNLVFGGGTKLTVL	0.105 µg/mL	0.769 µg/mL	0.00289 µg/mL
C1179 (protein) chain 1: QVQLVESGGGVVQPGRSLRLSCAASGFTFRNYAMHWVRQAPGKGLEWVAVLLYDGSTKYNADSVKGRFTISRDNSKNTLYLQMNSLRAEDTALYYCAREPHCTGGVCDAFDMWGQGTMVTVSS chain 2: DIQMTQSPSSLSASVGDRVTITCRASQSIINYLNWYQQKPGKAPKLLIYAASSLLSGVPSSFSGSGSGTDFTLTISSLQPEDFATYYCQQTYSTPYTFGPGTKVDIK	0.014 µg/mL	0.028 µg/mL	0.0027 µg/mL
C2420 (protein) chain 1: QVQLQESGPGLVKPSETLSLSCTVSGGSISTYFWTWIRQPPGKGLEWIGYIYYSGSTNYSPSLQSRVTILVDTSKNQFSLKLTSVTAADTAVYYCARGTVIKVGRTSYSYGMDVWGQGTTVTVSS chain 2: SYELTQPPSVSVAPGQTARITCGGNNIGSYSVHWYQQKPGQAPVLVIFYDSDRPSGIPERFSGSNSGNTATLTISRVEAGDEADYYCQVWDTNSDHLVVFGGGTKLTVL	> 1 µg/mL	> 1 µg/mL	0.00219 µg/mL
C1170 (protein) chain 1: QVQLVQSGAEVKKPGASVKVSCKASGYTFSSYFIHWVRQAPGQGLEWMGIINPGGASRSSAQKFQGRVTMTSDTSTSTVYMELSSLRSEDTAVYYCAREHGGNSYFDQWGQGTLVTVSS chain 2: DIQLTQSPSFLSASVGDRVTITCRASQGISGYLAWYQQKPGEAPKVLIYAASTLQSGVPSRFSGSGSGTEFTLTISSLQPEDFATYYCQHLNNYPVAFGQGTKVEIK	0.0238 µg/mL	0.0644 µg/mL	0.00213 µg/mL
C1180 (protein) chain 1: QVQLVESGGGVVQPGRSLRLSCAASGFTFSTYGMHWVRQAPGKGLEWVAAVYYDGSNKYYVDSVKGRFTISRDNSKNTLYLQMNSLRADDTAVYYCASHSAGYGDSYETFDIWGQGTMVTVSS chain 2: EIVMTQSPATLPVSPGERATLSCRASQSVGTNLAWYQQKPGQAPRLLINGASTRATGIPGRFSGSGSGTDFTLTINSLQSEDSAVYYCQQYDNWPPFTFGQGTKLEIK	0.00673 µg/mL	0.0427 µg/mL	0.00237 µg/mL
C1177 (protein) chain 1: QVQLVESGGGVVQPGRSLRLSCSASGFTFRHYGMHWVRQAPGKGLEWVAVTSYDGSNQYYSDSVKGRITISRDNSKNTLYLQMNSLRVEDTAMYYCAKGGYSYAYPETFFDYWGQGTLVTVSS chain 2: SYELTQPPSVSVAPGQTARITCEENNIGSKSVHWYQQTPGQAPVLVVSDNSDRPSGIPDRFSGSNSGNTATLTIGRVEAGDEADYYCQVWDSGSDHPGVFGGGTKLTVL	0.904 µg/mL	> 1 µg/mL	0.00377 µg/mL
C1171 (protein) chain 1: EVQLVESGGGFVKPGGSLRLSCAASGFSLNDAWMSWVRQAPGKGPEWVGHIKTTIDGGTSDYAASVIGRFTISRDDSKNRLYLHMNSLKTEDTAVYFCIASDLLRYYSYGIDVWGQGTTVTVSS chain 2: DIQMTQSPSTLSASVGDRVTITCRASQSISNWLAWYQQKPGQAPKLLIYKTSNLKSGVPSRFSGSGSGTEFTLTIRSLQPDDFATYYCQQYDSYSWTFGQGTKVEIK	0.112 µg/mL	> 1 µg/mL	0.00223 µg/mL
C1176 (protein) chain 1: QVQLQESGPGLVKPSQTLSLTCTVSGGSMNSGDYYWSWIRQHPGKGLEWIGYIFYSGSTYHNPSLNSRPTISVDTSKNQFSLKLSSVSAADTAVYYCARVPRHYGDNVHHAFDIWGQGTMVTVSS chain 2: QSALTQPASVSGSPGQSITISCTGTSSDVGSYNLVSWYQQHPGKAPKLMIYEDNRRPSGVSNRFSGSKSGNTASLTISGLQAEDEADYYCCTYAGSTSVLFGGGTKLTVL	> 1 µg/mL	> 1 µg/mL	0.00252 µg/mL
C1173 (protein) chain 1: QLQLQESGPGLVKPSETLSLTCTVSGGSISSNSYYWGWIRQPPGKGLEWIGSIYYSGSTYYNPSVMSRVTISVDTSKNQFSLNLRSVSAADTAIYYCARRRRWGFGDGFDIWGHGTMVTVSS chain 2: QSALTQPRSVSGSPGQSVTIACTGTSSDVGGYDYVSWYQQHPGKAPKLMIYDVNKRPSGVPDRFSGSKSGNTASLTISGLQTEDEADYYCCSYAGSYTTLFGGGTKLTVL	> 1 µg/mL	> 1 µg/mL	0.00384 µg/mL
C1178 (protein) chain 1: QVQLVQSGAEVKKPGASVKVSCKASGSTFTSHYMHWVRQAPGQGLEWMGIINPSGGSTRYAQKFQGRVSLTSDTSTSTVHMELSSLRSEDTAVYYCARDAGFIVVVTGGFDYWGQGTLVTVSS chain 2: QSALTQPASVSGSPGQSITISCTGTSSDIGGYNYVSWYQQHPGKGPKLMIYDVSNRPSGLSNRFSGSKSGNTASLTISGLQAEDEADYYCSSYTSSTTVVFGGGTKVTVL	> 1 µg/mL	> 1 µg/mL	0.00833 µg/mL
C1182 (protein) chain 1: QLQLQESGPGLVKPSETLSLTCTVSGDSISSSNYYWGWIRQPPGKGLEWIGSIYYTGSTYYNPSLKSRVTISVDTSKNQFSLNLSSVIAADTAVYYCARRRLPPSSYYSAMDVWGQGTTVTVSS chain 2: QSALTQPASVSGSPGQSITISCTGTSSDVGGYNYVSWYQQYPGKAPKIMIYDVSNRPSGVSNRFSGSKSGNTASLTISGLQADDEADYYCSSYTSSSTEVFGGGTKLTVL	> 1 µg/mL	> 1 µg/mL	0.00595 µg/mL

Recombinant human monoclonal antibodies (heavy:light variable regions). ELISA EC50 on the named antigen, from 10 µg/ml down; IC50 / IC90 against spike pseudovirus on 293T-ACE2 cells, 48 h; lower = stronger. Calls: IC50 above 1,000 ng/ml = non-neutralizing; EC50 above 2,000 ng/ml = non-binder. The source prints 1000 for neutralization that was not reached; it is given as >1000 ng/ml. A few antibodies were first reported in earlier work of the same group.
